Data set [1] can be described thus: Hydrophobicity by HIC-HPLC. Type of data set: physicochemical. Here is the method: The hydrophobic property of the antibody in Example 1.2 was detected by HPLC 1260 infinity II system (Agilent Technologics™) with a TSKgel butyl-NPR column (Tosoh-0042168). Each antibody sample was diluted to 0.5 mg/mL with PBS buffer, and 20 μL of the diluted sample was injected into the column and separated at a flow rate of 0.5 mL/min for 61 min. The running buffers were 25 mM sodium phosphate, pH 7.0 (buffer A) and 25 mM sodium phosphate, 1.5 M (NH4)2SO4, pH 7.0 (buffer D). The running gradient from 3 min to 53 min was from 0% to 100% buffer D. The peak retention was detected with UV light at wavelengths of 280 nm and 230 nm. The retention time was analyzed by integrating all peak areas from 20 min to 40 min using HIC-HPLC analysis method. The operation and analysis software was the OpenLab CDS workstation (v2.6.0.691).

For another data set, the target named is T1, Human B7-H3(4Ig) (Homo sapiens, UniProt Q5ZPR3).
T1 construct: His tag; purchased ACRO B7B-H52E7
T1 sequence (Q5ZPR3 29-534): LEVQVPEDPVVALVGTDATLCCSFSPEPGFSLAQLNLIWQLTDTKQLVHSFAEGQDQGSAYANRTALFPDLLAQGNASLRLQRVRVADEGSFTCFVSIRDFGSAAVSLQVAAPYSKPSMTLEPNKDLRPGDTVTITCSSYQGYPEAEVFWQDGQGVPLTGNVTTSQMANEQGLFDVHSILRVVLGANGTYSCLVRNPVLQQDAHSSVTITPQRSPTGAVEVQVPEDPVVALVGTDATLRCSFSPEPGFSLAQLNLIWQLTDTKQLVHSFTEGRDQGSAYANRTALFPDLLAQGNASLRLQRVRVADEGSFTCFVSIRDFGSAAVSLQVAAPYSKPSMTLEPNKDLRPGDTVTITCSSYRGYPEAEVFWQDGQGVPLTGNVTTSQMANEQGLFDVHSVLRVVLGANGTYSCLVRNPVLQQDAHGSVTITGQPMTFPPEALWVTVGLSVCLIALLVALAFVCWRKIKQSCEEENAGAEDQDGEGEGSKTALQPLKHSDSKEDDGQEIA
In words: ELISA binding to recombinant human B7H3 antigen. The note with it: FIG. 13. The method, then: In this example, whether there was a change in specific binding of the antibody to B7H3 antigen protein before and after conjugation to the drug was determined using ELISA. The information on the antigens and the test antibody used was as follows.
A 96-well ELISA plate was coated with 2 μg/mL recombinant human B7H3 antigen (see the table above) at 30 μL/well and kept at 4° C. overnight. The following day, the well plate was washed 3 times with PBST and then blocked with 5% skim milk for 2 h. […] The plate was then washed 3 times with PBST, and an HRP-labeled anti-human secondary antibody diluted in a 1:5000 ratio was then added at 100 μL/well and incubated for 1 h. After the incubation was complete, the plate was washed six times with PBST, and TMB (SurModics, TMBS-1000-01) was added for color development. Based on the results of the color development, the reaction was stopped by adding 2M HCl, and the plate was read by a microplate reader (Molecular Devices, SpecterMax 190) at OD450.
(In an ELISA, binding on a coated surface is turned into a signal by an enzyme label.)

For data set [2], the system named is PC-3 human prostate cancer cells. In words: PC-3 subcutaneous xenograft tumor-bearing mouse model. Type of data set: in vivo, mice. From the text:
6- to 8-week-old female BALB/c Nude mice (purchased from Zhejiang Vital River Laboratory Animal Technology Co., Ltd.) were used as test animals. 5×10^6 PC-3 human prostate cancer cells were inoculated subcutaneously into the right sides of the necks or dorsa of 6- to 8-week-old female BALB/c Nude mice. The growth of tumors was observed. When the volume of the tumors reached about 155 mm^3, the tumor-bearing mice were randomized into groups with 6 mice in each of the blank control group and the treatment groups. […] Doses administered were 2 mg/kg and 6 mg/kg. The experiment ended on day 21. Experimental grouping and dosing were as follows.
(§1) At the end of the experiment, mice were euthanized and tumor inhibition rate TGI was calculated as follows:
[formula] • Ti: mean tumor volumes of the treatment groups and the positive control group on day i of administration; • T0: mean tumor volumes of the treatment groups and the positive control group on day 0 of administration; • Vi: mean tumor volume of the negative control group on day i of administration; • V0: mean tumor volume of the negative control group on day 0 of administration.

Data set [3] deals with patient-derived prostate cancer PR9587 tumor tissues. In words: PR9587 prostate cancer patient-derived xenograft model. Type of data set: in vivo, mice.
Text: Patient-derived prostate cancer PR9586 and PR9587 tumor tissues were separately inoculated subcutaneously into NPG or NOG mice. When the tumors grew to about 500-800 mm^3, the tumor tissues were collected and the mice were euthanized. The collected tumor tissues were cut into tumor masses of a diameter of 2-3 mm and then inoculated subcutaneously into the right anterior scapula of the NPG or NOG mice. When the mean tumor volume of the tumor mass-inoculated NPG or NOG mice reached about 100-200 mm^3, the mice were randomized into groups with 6 mice in each of the blank control group and the treatment group.
The experiment ended on day 25 (for mice inoculated with PR9586) or on day 48 (for mice inoculated with PR9587). After the administration was started, the body weight and tumor size of the mice were measured twice a week. Calculation formula for tumor volume: Tumor volume (mm^3)=½×(a×b^2) (where a represents long diameter and b represents short diameter).
as §1
[formula] • wherein, • Ti: mean tumor volume of the treatment group on day i of administration; • T0: mean tumor volume of the treatment group on day 0 of administration; • Vi: mean tumor volume of the negative control group on day i of administration; • V0: mean tumor volume of the negative control group on day 0 of administration.

Where [4] appears, read: 2 mg/kg i.v. single dose, day 21.
[5] abbreviates: 6 mg/kg i.v. single dose, day 21.
Where [6] appears, read: 10 mg/kg i.v. once every two weeks x2, Day 48.

B1: W301088-1.145.16-z3-p1-uIgG1KV320: humanized anti-B7H3 IgG1 antibody, heavy chain SEQ ID NO: 12, light chain SEQ ID NO: 13 (antibody)
heavy: QVQLQESGPGLVKPSQTLSLTCTVTDYSITGDYAWNWIRQHPGKGLEWIGYISYSGSTSYNPSLQSRVTISRDTSKNQFSLKLSSVTAADTAVYFCARSLGRRWYFVVWGQGTTVTVSSASTKGPSVFPLAPSSKSTSGGTAALGCLVKDYFPEPVTVSWNSGALTSGVHTFPAVLQSSGLYSLSSVVTVPSSSLGTQTYICNVNHKPSNTKVDKRV[not shown - human IgG1 Fc with changes]
light: DIVMTQSPDSLAVSLGERATINCKSSQSLLQSSNQKNYLAWYQQKPGQPPKLLIYFASTRESGVPDRFSGSGSGTDFTLTISSLQAEDVAVYYCQQHYSAPWTFGGGTKVEIKRTVAAPSVFIFPPSDEQLKSGTASVVCLLNNFYPREAKVQWKVDNALQSGNSQESVTEQDSKDSTYSLSSTLTLSKADYEKHKVYACEVTHQGLSSPVTKSFNRGEC
For the molecule B1, in data set [1], the HIC retention time is 23.52 min.

B2: WBP301088-X2: antibody WBP301088 conjugated to linker-payload X2; the DAR6 batch was used in Examples 3-11 (conjugate)
heavy: QVQLQESGPGLVKPSQTLSLTCTVTDYSITGDYAWNWIRQHPGKGLEWIGYISYSGSTSYNPSLQSRVTISRDTSKNQFSLKLSSVTAADTAVYFCARSLGRRWYFVVWGQGTTVTVSSASTKGPSVFPLAPSSKSTSGGTAALGCLVKDYFPEPVTVSWNSGALTSGVHTFPAVLQSSGLYSLSSVVTVPSSSLGTQTYICNVNHKPSNTKVDKRV[not shown - human IgG1 Fc with changes]
light: B1 light
Broadly, the T/C is the ratio of treated to control. The TGI is how far tumour growth fell short of that in controls. A low value points to a weaker effect on the tumour. As to B2, the “change in binding activity to human B7H3 antigen protein before and after conjugation” value with Human B7-H3(4Ig) is given as “no significant change”. Moreover, the Tumor volume in data set [2] (2 mg/kg i.v. single dose, day 0) is recorded as 155 ± 7 mm^3; in data set [2] (2 mg/kg i.v. single dose, day 4), 202 ± 8 mm^3; in data set [2] (2 mg/kg i.v. single dose, day 7) it was 248 ± 23 mm^3; in data set [2] (2 mg/kg i.v. single dose, day 11), 268 ± 27 mm^3; in data set [2] (2 mg/kg i.v. single dose, day 14), 274 ± 28 mm^3; in data set [2] (2 mg/kg i.v. single dose, day 18), 282 ± 32 mm^3. Also, the Tumor volume in data set [2] (setting [4]) worked out at 298 ± 37 mm^3; in data set [2] (6 mg/kg i.v. single dose, day 0), 155 ± 9 mm^3; in data set [2] (6 mg/kg i.v. single dose, day 4), 199 ± 11 mm^3; in data set [2] (6 mg/kg i.v. single dose, day 7) it was 233 ± 6 mm^3; in data set [2] (6 mg/kg i.v. single dose, day 11) it was 241 ± 6 mm^3; in data set [2] (6 mg/kg i.v. single dose, day 14), 225 ± 14 mm^3. In addition, the Tumor volume in data set [2] (6 mg/kg i.v. single dose, day 18) amounted to 231 ± 15 mm^3; in data set [2] (setting [5]), 184 ± 11 mm^3. The T/C stood at 29.30% in data set [2] (setting [4]), 18.06% in data set [2] (setting [5]) and 30.91% in data set [3] (setting [6]). The TGI is reported as 83.41% in data set [2] (setting [4]), 96.62% in data set [2] (setting [5]) and 69.09% in data set [3] (setting [6]). For the same molecule, the “anti-tumor activity (in words)” value in data set [2] (single dose, 2 and 6 mg/kg) was “significant dose-dependent anti-tumor activity”; in data set [3] (PDX models (PR9586, PR9587), 10 mg/kg), “The results indicate that the antibody-drug conjugate WBP301088-X2 of the present application showed significant anti-tumor activity after the administration”. The “Tumor volume (mean ± SEM)” value in data set [3] (setting [6]) stood at 90.29 ± 39.21 mm^3.

The values above are taken from patent US20260224723A1, “ANTI-B7H3 ANTIBODY-DRUG CONJUGATE AND USE THEREOF” (Duality Biologics (Suzhou) Co., Ltd., priority 2022, published 2026).
